Assay results from paper PMC4336329 (PLoS ONE, 2015).
Out of some 310,000 compounds screened, about 14,000 (4.5%) showed an effect of 50% or more. Effects have a minus sign here. Some of the results follow.

Molecular target: human ether-à-go-go-related gene (hERG) potassium channel (human, UniProt Q12809)
Assay: primary screen, population patch clamp on CHO cells stably expressing hERG
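Note: peak tail current of the secondary pulse compared with the same well before compound.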

human ether-à-go-go-related gene (hERG) potassium channel, sequence (Q12809 whole entry, looked up): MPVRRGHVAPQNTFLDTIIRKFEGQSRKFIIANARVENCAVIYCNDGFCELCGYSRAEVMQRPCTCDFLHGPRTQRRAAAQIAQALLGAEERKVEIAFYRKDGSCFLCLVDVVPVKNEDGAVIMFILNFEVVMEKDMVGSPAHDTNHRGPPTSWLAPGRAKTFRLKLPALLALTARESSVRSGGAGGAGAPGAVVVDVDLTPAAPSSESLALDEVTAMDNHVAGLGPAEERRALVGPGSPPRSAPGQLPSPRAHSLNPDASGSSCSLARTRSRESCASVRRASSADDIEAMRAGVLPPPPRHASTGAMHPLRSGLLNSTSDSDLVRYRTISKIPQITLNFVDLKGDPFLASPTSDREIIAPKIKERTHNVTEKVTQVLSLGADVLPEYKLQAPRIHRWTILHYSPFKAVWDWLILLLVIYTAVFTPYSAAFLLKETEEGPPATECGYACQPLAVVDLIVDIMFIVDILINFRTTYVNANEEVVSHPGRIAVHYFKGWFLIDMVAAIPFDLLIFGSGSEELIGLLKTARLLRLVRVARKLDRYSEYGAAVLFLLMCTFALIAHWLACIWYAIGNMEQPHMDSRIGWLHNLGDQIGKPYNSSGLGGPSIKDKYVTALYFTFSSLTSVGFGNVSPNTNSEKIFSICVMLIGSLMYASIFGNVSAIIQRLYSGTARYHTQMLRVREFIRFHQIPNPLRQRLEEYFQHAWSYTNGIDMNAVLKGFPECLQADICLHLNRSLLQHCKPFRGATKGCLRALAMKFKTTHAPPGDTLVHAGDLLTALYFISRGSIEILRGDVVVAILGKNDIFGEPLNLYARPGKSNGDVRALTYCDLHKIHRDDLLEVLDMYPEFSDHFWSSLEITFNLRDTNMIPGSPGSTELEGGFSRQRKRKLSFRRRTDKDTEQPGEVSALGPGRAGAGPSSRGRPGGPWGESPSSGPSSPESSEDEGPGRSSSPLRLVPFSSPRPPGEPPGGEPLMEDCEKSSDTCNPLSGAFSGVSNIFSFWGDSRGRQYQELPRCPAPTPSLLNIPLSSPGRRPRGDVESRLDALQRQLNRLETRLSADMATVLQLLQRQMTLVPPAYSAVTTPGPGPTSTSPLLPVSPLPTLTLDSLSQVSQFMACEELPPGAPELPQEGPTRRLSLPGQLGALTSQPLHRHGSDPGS

Row | SMILES | hERG current change (%, negative = inhibition) at 10uM
1 | Cc1sc2ncn(CC(=O)NCCCC(=O)N3CCCCC3)c(=O)c2c1C | 1.08%
2 | COc1ccc(NC(=O)c2ccc(CNc3c(N4CCCC4)c(=O)c3=O)cc2)cc1Cl | 7%
3 | CC(=O)N/C(=C/c1ccc(OS(=O)(=O)c2ccc(C)cc2)cc1)C(=O)Nc1ccc(C(=O)O)cc1 | 12.7%
4 | COc1ccc(OC)c(NC(=O)c2ccc(NS(=O)(=O)c3c(C)noc3C)cc2)c1 | -11.2%
5 | CCC1(C)Cc2nc3sc(C(=O)O)c(N)c3cc2CO1 (stereo not shown) | 5.56%
6 | CCOC(=O)c1cnc2c(Cl)cc(Cl)cc2c1NCCOCCO | -18.2%
7 | O=C(CSc1nnnn1-c1ccc(F)cc1)NCc1cccs1 | -0.104%
8 | CC(=O)N1CCN(c2ccc(NC(=O)c3ccc(OCc4ccccc4)cc3)cc2)CC1 | 16.7%
9 | O=c1[nH]c(=S)n(-c2ccccc2)c(O)c1C=NCCN1CCNCC1 | 20%
10 | COc1ccc(Cl)cc1NC(=O)Cn1c(C)csc1=O | 0.644%
11 | COc1cccc(/C=N/n2c(=S)n(C)c3cc(C)c(C)cc32)c1OC | 3.15%
12 | CSC[C@H](NC(=O)COc1cc2c(c3oc(=O)cc(C)c13)CCC(C)(C)O2)C(=O)O | 13.1%
13 | Cc1ccc(C(C)C)c(OCCN2C(=O)NC(C)(C)C2=O)c1 | -2.69%
14 | CCOC(=O)C1CCN(C(=O)/C=C/c2cccs2)CC1 | 23%
15 | NC(=O)N/N=C/c1c(F)cccc1F | 7.11%
16 | O=C(Cn1c(C(=O)N2CCN(C3CCCC3)CC2)cc2sccc21)c1ccccc1 | -76.1%
17 | Cc1ccc(NC(=O)N2CCCC2C(=O)NCC2CCCO2)cc1 (stereo not shown) | 28.4%
18 | CCC(Sc1nc(C)cc(C)n1)C(=O)Nc1nccs1 (stereo not shown) | 14.9%
19 | O=C(c1ccc(Br)o1)N(Cc1ccccc1)c1ccccn1 | -19.3%
20 | O=C(CN(Cc1ccc(F)cc1)C(=O)CCC(=O)Nc1nccs1)NCc1ccccc1 | -35.6%
21 | COc1ccc(NC(=O)C2CCCN2C(=O)NC2CCCCC2)c(OC)c1 (stereo not shown) | 5.13%
22 | O=C(COc1cc(Cl)c(Cl)cc1Cl)Nc1ccc([N+](=O)[O-])cc1Cl | 11.9%

Row | SMILES | hERG current change (%, negative = inhibition) at 10uM
23 | CCc1noc(C)c1C(=O)N1CCCC(C(=O)c2cc(F)ccc2F)C1 (stereo not shown) | -41.2%
24 | CN(C)S(=O)(=O)n1cnc([C@@H]2[C@H]3C(=O)OC[C@@H]3C[C@@]23N=CN(Cc2ccccc2)C3=O)c1 | 1.5%
25 | COc1ccc(C(=O)NCc2nnc(SCC(=O)N3CCCCC3)o2)cc1OC | 3.19%
26 | O=C(c1ccco1)N1CCN(Cc2ccc(Cl)cc2)CC1 | -14%
27 | O=C(NNC(=O)c1ccccc1O)c1ccc(Cl)c(S(=O)(=O)N2CCCCC2)c1 | -22.5%
28 | CC/C(=C\C=C\[C@@H]1C=C[C@@H]2CCC[C@H]2[C@@H]1C(=O)c1ccc[nH]1)[C@@H]1O[C@@H]([C@@H](C)C(=O)[O-])CC[C@@H]1C.[Na+] | -7.05%
29 | CCOC(=O)CCc1c(C)nc2cc(-c3ccc(Cl)cc3)[nH]n2c1=O | -7.09%
30 | CC(=O)Nc1ccc(S(=O)(=O)c2ccc([N+](=O)[O-])cc2)cc1 | -32.3%
31 | CCN(CC)c1ccc(NS(=O)(=O)c2ccc(OC)cc2)cc1 | -6.12%
32 | O=[N+]([O-])c1ccc(SCCc2ccccn2)cc1 | -44.3%
33 | COCCn1nnnc1C(c1ccc(C(F)(F)F)cc1)N1CCOCC1 (stereo not shown) | 12.5%
34 | Cc1nnc(NC(=O)CSc2ncnc3c2cnn3-c2ccccc2C)s1 | 4.47%
35 | COc1ccc(CNC(=O)CN(c2ccccc2)S(=O)(=O)N(C)C)cc1 | 1.53%
36 | CCC(C)Cn1c([O-])cc2nn(-c3nc4ccccc4s3)c(=O)c-2c1C.[Na+] (stereo not shown) | -21%
37 | N#CCCn1cc(C(=O)O)c(-c2cccc([N+](=O)[O-])c2)n1 | 13.8%
38 | C/C(=N\NC(=O)c1cc(O)cc(O)c1)c1ccc(NC(=O)Cc2ccccc2)cc1 | 14.2%
39 | O=C(NCCN1C(=O)S/C(=C\c2ccc(F)cc2)C1=O)C1CCN(S(=O)(=O)c2cccs2)CC1 | -7.1%
40 | Cc1ccc(Cn2c(-n3nc(C)cc3C)nc3c2c(=O)[nH]c(=O)n3C)cc1 | -12.9%
41 | CN(C(=O)C(=O)c1cn(CC(=O)N2CCCC2)c2ccccc12)C1CCCCC1 | 1.82%
42 | O=C(Nc1cc(F)c(Br)cc1F)c1ccc(Cl)cc1 | 15.3%
43 | O=C1CC[C@@H](OCc2ccccc2)CCN1CC[C@H](Sc1ccccc1)c1ccccc1 | -2.38%
